The source gives no read counts; variants with many changes may rest on few reads.
B1: OR4K15 (parent)
chain: GUUAACGGUCAUAGGCCAUGGAAACUAGGAGCACCAUUUCGCUGCCAGUGAAGAAAUGAACAAAGAAAAUCUGGGCCAGGCAGGCAUCAAAAGAAAUAGUCUUGCGCUCAACCAGAAAGUCUGUAAUCAUUUUAAGGGUA

Variants of: B1
Assay: self-cleavage, relative activity (ratio to wild type); higher = more cleavage; in vitro, sequencing; the parent is a self-cleaving ribozyme

Variant | self-cleavage
UUUAACGGUCAUAGGCCAUGGAAACUAGGAGCACCAUUUCGCUGCCAGUGAAGGAAUAAACAAAGAAAAUCUGGGCCAGGCAGGCAUCAAAAGAAAUAGUCUUGCGCUCAACCAGAAAGUCUGUAAUCAUUUUAAGGGUA [G1U A54G G58A] | 1.9
GUUAACGGUCAUAGGCCAUGGAAACUAGGAGCACCACUUCGCUGCCAGUGAAGAAAUGAACAAAGAAAAUCUGGGCCGGGCAGGCAUCAAAAGAAAUAGUCUUGCGCUCAACCAGAAAGUCUGUAAUCAUUAUAAGGGUA [U37C A78G U132A] | 0.16
GUUAGCGGUCAUAAGCCAUGGGAACUAGGAGCACCAUUUCGCUGCCAGUGAAGAAAUGAACAAAGAAAAUCUGGGCCAGGCAGGCAUCAAGGGAAAUAGUCUUGCGCUCAACCAGAAAGUCUGUAAUCAUUUUAAGGGUA [A5G G14A A22G A91G A92G] | 0.31
GUUAACGGUCAUAGGCCAUGGAAACUAGGAGCACCAUUUCGCUGCCAGUGAAGAAAUGAACAAAGAAAAUCUGGGCCGGGCAGGCAUCAAAAGAAAUAGUCUCGCGCUCGACCAGAAAGUCUGUAAUCAUUUUAAGGGUA [A78G U103C A110G] | 0.01
GGUAACGGCCAUAGGCCAUGGAGACUAGGAGCACCAUUUCGCUGCCAGUGAAGAAAUGAACAAAGAAAAUCUGGGCCAGGCAGGCAUCAAAAGAGAUAGCCUUGCGCUCAACCAGAAAGUCUGUAAUCAUUUUAAGGGUA [U2G U9C A23G A95G U100C] | 2.1
GUUAACGGUCAAAGGCCAUGGAAACUAGGAGCACCAUUUCGCUGCCAGUGAAGAAAUGAACGAAGAAAAUCUGGGCCAGGCAGGCAUCAAAAGAAAUAGUCUUGCGCUCAACCGGAAAGUCUGUAAUCAUUUUAAGGGUA [U12A A62G A114G] | 0.52
GUUAACGGUCAUAGGCCAUGGAAACCAGGAGCACCAUUUCGCUGCCAGUGAAGAAAUGAACAAAGAAAAUCUGGGCCAGGCAGGCAUCAAAAGAAAUAGCCUUGCGCCCAACCAGAAAGUCUGUAAUCAUUUUAAGGGUA [U26C U100C U108C] | 0
GUCAACGGUCAUAGGCCAUGGAAACUAGGAGCACCAUUUCGCUGCCAGUGAAGAAAUGAACAAAGAAAUUCUGGGCCAGGCAGGCAUCAAAAGAAAUUGUCUUGCGCUCAACCAGAAAGUCUGUAAUCAUUUUAAGGGUA [U3C A69U A98U] | 0.79
GUUAACGGUCAUAGGCCAUGGAAGCUGGGAGCACCAUUUCGCUGCCAGUGAAGAAAUGAACAAAGAAAAUCUGGGCCAGGCGGGCAUCAAAAGAAAUAGUCUUGCGCUCAACCAGAAAGUCUGUAAUCAUUUUAAGGGUA [A24G A27G A82G] | 0.37
GUUAACGGUCAUGGGCCAUGGAAACUAGGAGCACCAUUUCGCAGCCAGUGAAGAAAUGAACAGAAAAAAUCUGGGCCAGGCAGGCAUCAGAAGAAAUAGUCUUGCGCUCAACCAGAAAGUCUGUAAUCAUUUUAAGGGUA [A13G U43A A63G G65A A90G] | 1.15
UUUGACGGUCAUAGGCCGUGGAAACUAGGAGCACCAUUUCGCCGCCAGUGAAGAAAUGAUCAAAGAAAAUCUGGGCCAGGCAGGCAUCAAAAGAAAUUGUCUUGCGCUCAACCAGAAAGUCUGUAAUCAUUUUAAGGGUA [G1U A4G A18G U43C A60U A98U] | 1.2
GUUAACGGUCAUAGGCCAUGGAAACUAGGAGUACCAUUUCGCUGCCAGUGAAGAAAUGAACAAAGAAAAUCUGGGCCAGGCAGGCAUCUAAAGAAAUAGUCUCGCGCUCAACCAGAAAGUCUGUAAUCAUUUUAAGGGUA [C32U A89U U103C] | 0.95
GUUAACGGUCCUAGGCCAUGGAAACUAGGAGCACCAUUUCGCUGCCAGUGAAGAAAUGAACAAAGAAAAUCUGGGCCAGGCGGGCAUCAAAAGAAAUAGUCUUGCGCUCAACCAGAAAGUCUGUAACCAUUUUAAGGGUA [A11C A82G U127C] | 0.03
GUUAACGGUCAAAGGCCAUGGAAACUGGGAGCACCAUUUCGCUGCCAGUGAAGAAAUGAACAAAGAAAAUCUGGGCCAGGCAGGCGUCAAAAGAAAUAGUCUUGCGCUCAACCAGAAAGUCUGUAAUCGUUUUAAGGGUA [U12A A27G A86G A129G] | 0.67
GUUAACGGUCAUAGGCCAUGGAAACUAGGAGCACCAUUUCGCUGCCAGUGAAGAGAUGAACAAAGAAAAUCUGGGCCAGGCAGGCAUCAAAAGAAAUAGUCGUGCGCCCAACCAGAAAGUCUGUAAUCGUUUUAAGGGUA [A55G U102G U108C A129G] | 0
GUUAACGGUCAUAGACCAUGGAAACUAGGAGCACCAUUUCGCUGCCAGAGAGGAAAUGAACAAAGAAAAUAUGGGCCAGGCAGGCAUCAAAAGAAAUAGUCUUGCGCUCAACCAGAAAGUCUGUAAUCAUUUUAAGGGUA [G15A U49A A52G C71A] | 0.38
GUUAACGGCCAUAGGCCAUGGAAACUAGGAGUACCAUUUCGCUGCCAGUGAGGAAAUGAACAAAGAAAAUCUGGGCCAGGCAGGCAUCAAAAGAGAUAGUCUUGCGCUCAACCAGAAAGUCUGUAAUCAUUUUAAGGGUA [U9C C32U A52G A95G] | 1.45
GUUAACGGUCACAGGCCAUGGAAACUAGGAGCACCAUUUCGCCGCCAGUGAAGAAAUGAACAAAGAAAAUCUGGGCCAGGCAGGCAUCAAAAGAAAUAGUCUUGCGCUCAACCAGAAGGUCUGUAAUCAUCUUAAGGGUA [U12C U43C A118G U131C] | 0.39
GUCAACGGUCAUAGGCCAUGGAAACUAGGAGCACCAUUUCGCUGCCAGUGAAGAAAUGAACAAAGAAAGUCUGGGCCAGGCAGGCAUCAAAAGAAAUAGUCUUGCGCUCGACCAGAAAGUCUGUAAUCAUUUUAAGGGUA [U3C A69G A110G] | 0.18
GUUAACGGUCACAGGCCAUGGAAACUAGGAGCACCAUUUCGCUGCCAGUGAAGAAAUGAGCAAAGAAAAUCUGGGCCAGGCAGGCAUCGAAAGAAAUAGUCUUGCGCUCAACCAGAAAGUCUGUAAUCAUUUUAAGGGUA [U12C A60G A89G] | 0.83
GUUAACGGUCAUAGGCCAUGGAAACUAGGAGCACCAUUUCGCUGCCAGUGAAGAAGUGAACAAAGAAAAUCUGGGCCAGGCAGGCAUCGGAAGAAAUAGUCUUGCGCUCAACCAGAAGGUCUGUAAUCAUUUUAAGGGUA [A56G A89G A90G A118G] | 0.8

Variant | self-cleavage
GUUAACGGUCAUAGGCCAUGGAAACUAGGAGCACCAUUUCGCUGCCAGUGAAGAAAUGAUCAAAGAAAAUCUGGGCCAGGCAGGCAUCAAAAGAAAUAGUCUUGCGCUCAACCAGAAAGUCAGUAAUCAUUUUAUGGGUA [A60U U122A A135U] | 2.17
GUUAACGGUCAUAGGCCGCGGAAACUAGGAGCACCACUUCGCUGCCAGUGAAGAAAUGAACAAAGAAAAUCUGGGCCAUGCAGGCAUCAAAAGAAAUAGUCUUGCGCUCAACCAGUAAGUCUGUAAUCAUUUUAAGGGUA [A18G U19C U37C G79U A116U] | 0.06
GUUAACGGUCAUAGGCCAUGGAAACUAGGAGCACCAUUUCGCUGCCAGUGAAGAAAUGAGCAAAGAAAAUCCGGGCCAGGCAGGCGUCAAAAGAAAUAGUCUUGCGCUCAACCAGAAAGUCUGUAAUCAUUUUAAGGGUA [A60G U72C A86G] | 0.08
GUUAACGGUCAUAGGCCAUGGAAACUAGGAGCACCAUUUCGCUGCCAGUGAGGAAAUGAACGAAGAAAAUCUGUGCCAGGCAAGCAUCAAAAGAAAUAGUCUUGCGCUCAACCAGAAAGCCUGUAAUCAUUUUAAGGGUA [A52G A62G G74U G83A U120C] | 0.06
GUUAACGGUCAUAGGCCAUGGAAACUAGGAGCACCAAUUCGCUGCCAGUGAAGAAAUGAACAUAGAAAAUCUGGGCCAGGCAGGCAUCAAAAGAAAUAGUCUUGCGCUCAACCAGAAAGUCUGUAAUCACUUUAAGGGUA [U37A A63U U130C] | 0.31
GUUAACGGUCAUAGGCCAUGGAAACUAGGAGCACCAUUUCGCUGCCAGUGAAGAAGUGAACAAAGAAAAUCUGGGCCAGGCGGGCAUCAAAAGAAAUAGUCUUGCGCCCAACCAGAAAGUCUGUAAUCAUUUUAAGGGUA [A56G A82G U108C] | 0
GUUAACGGUCAUAGGCCAUGAAAACUAGGAGCACCAUUUCGCUGCCAGUGAAGAAAUGAACAAAGAAAAUCUGGGCCAGGCAGGCAUCAAAAGAAAUAGUCUUGCGCUCAACCAGGAAGUCUGUAACCAUUUUAAGGGUA [G21A A116G U127C] | 0.42
GUUAACGGUCAUAGGCCAUGGAAACUAGGAGCACCAUUUCGCCGCCAGUGAAGAGAUGAACAAAGAAAAUCUGGGCCAGGCAGGCAUCAGGAGAAAUAGUCUUGCGCUCAACCAGAAAGUCUGUAAUCAUUUUAAGGGUA [U43C A55G A90G A91G] | 0.75
GUUAACGGUCAUAGGCCAUGGAAACUAGGAGCACCAUUUCGCUGCCAGUGAGGAAAUGAACAAAGAAAAUCUGGGCCAGGCAGGUAUCAAAAGAAAUAGUCUUGCGCCCAACCAGAAAGUCUGUAAUCAUUUUAAGGGUA [A52G C85U U108C] | 0.01
GUUAACGGUCAUAGGCCAUGGGAACUAGGAGCACCAUUUCGCUGCCAGUGAAGAAAUGAACAAAGAAAGUCUGGGCCAGGCAGGCAUCAAAAGAAAUAGUCUUGCGCUCAGCCAGAAAGUCCGUAAUCAUUUUAAGGGUA [A22G A69G A111G U122C] | 0.04
GUUAACAGUCAUAGGCCAUGGAGCCUAGGAGCACCAUUUUGCUGCCAGUGAAGAGAUGAACAAAGAAAAUCUGGGCCAGGCAGGCAUCAAAAGAAAUAGUCUUGCGCUCAACCAGAAAGUCUGUAAUCAUUUUAAGGGUG [G7A A23G A24C C40U A55G A140G] | 0.96
GUUAACGGUCAUAGGCCAUGGGAACUAGGAGCACCAUUUCGCUGCCAGUGAAGAAAUGAACAAAGAAAAUCUGGGCCAGGCAGGCAUCAAAGGAAAUAGUCUUGCGCUCAACCUGAAAGUCUGUAAUCAUUUUAAGGGUA [A22G A92G A114U] | 0.05
GUUAACGGCCAUAGGCCAUGGGAACUAGGAGCGCCAUUUCACUGCCAGUGAAGAAAUGAACAGAGAAAAUCUGGGCCAGGCAGGCAUCAAAAGAAAUAGUCUUGCGCUCAACCAGAAAGUCUGUAAUCAUUUUAAGGGUA [U9C A22G A33G G41A A63G] | 0.71
GUUAACGGUCAUAGGCCAUGGAAACUAGGAGCACCUUCUCUCUGCCAGUGAAGAAAUGAACAAAGAAAAUCUGGGCCAGGCAGGCAUCAAAAGAAGUAGUCUUGCGCUCGACCAGAAAGUCUGUAAUUAUUUUAAGGGUA [A36U U38C G41U A96G A110G C128U] | 0.28
GUUAACGGUCAUAGGCCAUGGAAACUAGGAGCACCAUUUCGCUGCCUGUGAAGAAAUGAACAAAGAAAAUCUGGGCCAGGCAGGCAUCGAAAGAAAUAGUCUUGCGCUCAACCAGAAAGUCUGUAAUCAUCUUAAGGGUA [A47U A89G U131C] | 0.59
GUUAACGGUCAUAGGCCAUGGAAGCUAGGAGCACCACUUCGCUGCCAGUGAAGAAAUGAACAAAGAAAAUCUGGGCCAGGCAGGCAUCAAAAGAAAUAGUCUUGCGCUCAACCAGAAAGUCCGUAAUCAUUUUAAGGGUG [A24G U37C U122C A140G] | 0.67
GUUAACGGUCAUAGGCCAUGGAAACUAGGAGCACCAUUUCGCUGCCAGUGAAGAAAUGAACAAAGAAAAUCUGGGCCAGGCAGGCAUCAAAAGAAAUAGUCUUGCGCUCAGCCAGAAAGUCAGUAAUCAUGUUAAGGGUA [A111G U122A U131G] | 0.01
GUUAACGGUCAUAGGCCAUGGAAACUAGGAGCACCAUUUCGCCGCCAGUGAAGAAAUGAACAAAGAAAAUCUGGGCCAGGCAGGCAUCAAAAGAAGUAGUCUUGCGCUCCACCAGAAAGUCUGUAGUCAUUUUAAGGGUA [U43C A96G A110C A126G] | 0.21
GUUAACGGUCAUAGGCCGUGGAAACCAGGAGCACCAUUUCGCUGCCAGUGAUGAAAUGAACAAAGAAAAUCUGGGCCAGGCAGGCAUCAAAAGAAAUAGUCUUGCGCUCAACCAGAAAGCCUGUAAUCAUUUUAAGGGUA [A18G U26C A52U U120C] | 1.06
GUUAACGGCCAUAGGCCAAGGAAACUAGGAGCACCAUAUCACUGCCAGUGAAGAAAUGAACAAAGAAAAUCUGGGCCAGGCAGGCAUCAAAAGAAAUAGUCUUGCGCUCAACCAGAAAGUCUGUAAUCAUUUUAAGGGCA [U9C U19A U38A G41A U139C] | 1.81

Source: the RNAGym collection of RNA variant scans (doi:10.7554/elife.90254)
